In the supplement of paper PMC12632987:
The full ranking holds about 4,500 sequences; the median of “median log2 fold change of GCK-ALFA target abundance (FLAG IP / Myc IP barcode read proportion)” is about 0.078, and the lowest 2% start at about -0.6. The list shows a part of the results.

B1: GBRAP_160_4534 (protein)
chain: SEFLEEAERELEETAEEAIELMKGQTAEQRATIADVEFGSFALELAEDPRASDEMVDVVLDNRDKLVATILANPDLTDEELEALIEETREKTIEELRKLF
B2: GBRAP_53_6393 (protein)
chain: KEEEIKKLIEELKKLIEELKKADAEEAVKLAKEAAEVLVKLAELGLPEEELVKLVKEFAEAVKDRPELEPVLIALAKRLAALGREEAAAEAAEALVEELE
B3: GBRAP_39_5628 (protein)
chain: EEEEELELLESLAEAELEKRRVETGLPLDELYARLLAEALKKVADNPELLAAIKELAALAEEKGEEAKERLAAILAALLAGEPLEDILRLVKAEIAKLKA
B4: GBRAP_160_4841 (protein)
chain: SAKAEKVKKELNEARDFVLSLVDEVSVEQLANAFDTEFSSVLEELYEEGVINEEAEDAGMAIVDEGVAALLAAKDASPEEIRALIKETVDKLIKTIEKLL
B5: GBRAP_78_6719 (protein)
chain: ELEELLDKAIETLNEAAKLALELPEEKSNELLDLLVEAINLLMEIIEENLPKEEAIKLLEEAIKLLEKALELLGGENPELKAKVEEAKKLVEKALKLAKK
B6: GBRAP_160_4500 (protein)
chain: SEKVERAIKELEELAELAIEAMKEVSDKDAVKIFRAYAGEMIELLREEANISEETEEKLDKILEELVKEMEAIKNLTPEQIEEIVNRFKEKAIELLKEES
B7: GBRAP_184_5025 (protein)
chain: RVVERTIEAADLAELEARLAALREEVAGTGADLIVLADIEDPTVEQIRTLLRALGALKREGLVSSVTVGFARELTEEQTDVALATADEEGIRVVLAISDE
B8: GBRAP_52_6131 (protein)
chain: MEERARRLVEELVELLKAGREEEAEELARRIARELSDEEIRLIADALAELIREASPEEAEYLFEAAELLAEELEEEGRDEALADYVLSRAAAALYERELK
B9: GBRAP_52_6042 (protein)
chain: MEERMRELAEEILALYLEGREEEARKLIREAVETLSEEELKLLGEALAELAREAPPEHLDAYMQAAFDLADALEEAGYDEVLADDLEARVAAAAVENLKR
B10: GBRAP_128_3309 (protein)
chain: MDEEKLAEAARLAKEMVESDIETAKELTRRFVALMATLTPEERERAAEIFKEELKKLSAEKLDAIADTLDELLPTLDPETANYVNEIRVEALNEAEEKEE
B11: GBRAP_74_6526 (protein)
chain: DAALLAALKAAADAGDVEAAVALAREIIATGSLAAVEEAAEILVEFVKKNIDKLTKEELELLSDTLAELADRLMELGGDSEVVIAVAQTAVELDKKAAAL
B12: GBRAP_128_3456 (protein)
chain: SVEEVRKWTREVMEEIKKANLEEARKLVEELAERLKTLSLEEVEAAVEVIEEELPKLTPEKLEIIADVFREAAPELDPEKRALVAGAASDALLLAEEKEE
B13: GBRAP_128_3502 (protein)
chain: STAAAVARAEELMAEVGEADDEEAREIAKEIVALIDSLDDATAEAVADAIIAQLPKLDKESLEIVADTFREQLPSLDPEKANLVADIQVEALNLALEKEE
B14: GBRAP_43_5782 (protein)
chain: SKELVDGAIDFAILTLEEPEIPEEQKVKAAKAAFDLAADEGYVDLEKLKKVVEAAGKSLSAESLKELKAHLEEIAKKYPEHKEVFEEAAKLVEEYIKKKE
B15: GBRAP_125_2972 (protein)
chain: SEEQLLEDLRLVALALGLSEEDAEEAAALARASSVKGTLYAIMAALGYEEAAAAVEKLTEEEAKEVLRRVAAEIRANPELTPEEVRALILREAEAAIAAR
B16: GBRAP_125_3021 (protein)
chain: SKEELVEDLKAIAKALGFSEEDVEEIGELARKHGIKGTLIAIALALGEEELADLLEKLSEEEVEEVVRRLAAWLKANPNATPEEVKAKLLELAKEAVAKR
B17: GBRAP_160_4453 (protein)
chain: SEKLEELLKKVEEIREEAIELIEGQSHEERVVVVAVEFGALILELSSDESVSDELEDEVAEIVDELVATLKANPDLSEEEVKELIKEAAEKIKEALKKYL
B18: GBRAP_166_4903 (protein)
chain: SREEKIKELKKEIEELIEKYKEADEETQLELLIEIGEKLRELKKLGMSMEEILELVRKALEAAKEAGASVRVAAGIIAEEAEFDEEEIDKLDEIAKEVEA
B19: GBRAP_83_6872 (protein)
chain: AEKITVATTGDNIDSAVDAAIDLSKEEGYDVTLEILARPEDFERVLEAAKRLAEAKVEMELVVILEGATPEEAKELEARLKEIFKEAGVNNKIEVILVEP
B20: GBRAP_53_6411 (protein)
chain: AAATIAALKAQARALAKEAAAADDATRAALVAEIGAVLAALKAAGAPEEELTALAKEIARLLKAAGAPDSALVALAAELAALGLEEATAEVAEEAVEELE
B21: GBRAP_139_3762 (protein)
chain: DEREKIVEKARELTKKLAEGDEKAAEELAKLVKSVDDETLKAIADAIRKALQGLDPDTIEKMRDILEEEMKKVGASEEDILLIEGAIDAAEAEAIVAELA
B22: GBRAP_160_4207 (protein)
chain: SEKIEKIIKSLKEETERVKKLIPEESVEEVANALDVEIGSVLLEASELGEENEEIEDTIAKAADDGVKLLRENPDASPEELAAGLDKIAEEAIKKIKEIS
B23: GBRAP_84_7004 (protein)
chain: EREEKILEITKKILEKSSIELKQKLLAYLLLKNENKAATLALNDLLAEDPEAAVEALDLATEAYEEGKEEEVEKELLELAKKEGEEVYELVEELLELIEE
B24: GBRAP_160_4466 (protein)
chain: AESAKEVAADLRADVDATLAETADESPVQIALAAAVTVGSNLMEAISEGKVTDEQEDLMIAAMDEIRALAAEEPDASPEAVIARIRAIIEATVAAILAAA
B25: GBRAP_160_4738 (protein)
chain: EERIKELVERARETLLEALELSEGESREERAAIFRGAAGEVLMDFMEDESLSDEMEDAAARILDELVAALVAAFDASLEEKRAIVERHMARLEEELLKLA
B26: GBRAP_83_6915 (protein)
chain: MKEITVAAVGDHIDEAFDAAIDLKKEGVEKIIVEAIIKPEEVPRLLEAVKRALEAGVNLELEVFLEGATEEEAEEVEKKLKEIAKEAGKEVKVTVEVIEP
B27: GBRAP_53_6417 (protein)
chain: SEEELKKLKEEILKLAKEAGKAGPEEALKLTKEIGKKLKELKKAGASDEEITELAKEVAKLLKEAGAPDSVLVALANILAELGLDDATAEVVELIVEDLE
B28: GBRAP_184_5220 (protein)
chain: TTVRRAVEAETAEEAIAKADAVIAEAQAAGKKLELTVFLKNMSLEEIERVMAYLAEKKEAGLVESVTVVVLDERSEEEIDELVAIADKYGIRLVVALPDE
B29: GBRAP_78_6572 (protein)
chain: EVEELVDEAIEKLSKAATLLAKLNTPEAQEILAEVVDALSDLLEAEEEGFDLELLKRALEHVEKAIKLVKKVPEEEYKEILKLLEEAKELLKKAIELVEK

These binders were tested against GABARAP, O95166 (assay: median log2 fold change of GCK-ALFA target abundance (FLAG IP / Myc IP barcode read proportion) (log2 ratio); each designed protein is fused to an ALFA-tag nanobody in HEK293 cells to bring the named protein to FLAG-tagged glucokinase (GCK); Myc marks an untargeted standard; higher = target protein stabilised (more abundant)). Conditions: target protein: 3xFLAG-MCP-GCK-ALFA reporter; HEK293 landing pad (RPLP).
GABARAP, O95166, sequence (O95166 whole entry, the tested form may be a part): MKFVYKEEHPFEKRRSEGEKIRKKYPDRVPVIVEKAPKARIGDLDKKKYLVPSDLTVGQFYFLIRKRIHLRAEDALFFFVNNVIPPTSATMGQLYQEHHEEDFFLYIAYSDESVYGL
Summary of the method: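 Sequencing of reverse-transcribed, amplified circular RNA barcodes from anti-FLAG and anti-Myc immunoprecipitates provided the readout for an ALFA-nanobody-fused binder library recombined into HEK293 landing-pad cells. Those cells were induced with 2 μg mL^−1 doxycycline, transfected with a plasmid expressing a FLAG-tagged target and a Myc-tagged standard, and lysed after 48 h. Target abundance is the per-binder median log2 ratio of FLAG to Myc barcode read proportions. Only barcodes at a proportion of ≥10^−7 in both replicates and binders with ≥3 barcodes per replicate were kept, with a 10^−6 pseudocount added before the two replicates were pooled.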

Binder	median log2 fold change
B1	-0.346
B2	0.237
B3	0.347
B4	-0.131
B5	0.394
B6	0.184
B7	0.101
B8	-0.469
B9	-0.435
B10	0.295
B11	0.0262
B12	0.13
B13	0.0852
B14	0.351
B15	-0.0731
B16	-0.32
B17	-0.242
B18	0.346
B19	0.17
B20	0.275
B21	0.0447
B22	-0.0845
B23	-0.383
B24	-0.146
B25	0.191
B26	0.19
B27	0.0476
B28	-0.216
B29	0.141
